One test deals with HSkMC. Briefly: cytotoxicity call (relative viability < 0.9). The note with it: 10 µM.
The subject of the next test is HepG2. Briefly: cytotoxicity call (relative viability < 0.9). The note with it: 10 µM.
The subject of a further test is S. aureus RN4220. Briefly: growth inhibition call (relative growth <= 0.2). The note with it: 50 µM.

The structures appear in SMILES notation. The list shows a part of the results.

Take `Nc1nnc(C(F)(F)F)[nH]1`: the cytotoxicity call in the test on HSkMC and in the test on HepG2 was “inactive” throughout. Further, in the test with S. aureus RN4220, the growth inhibition call is “inactive”.

For `CC(C)(C)c1cc(CCC(=O)OCC(COC(=O)CCc2cc(C(C)(C)C)c(O)c(C(C)(C)C)c2)(COC(=O)CCc2cc(C(C)(C)C)c(O)c(C(C)(C)C)c2)COC(=O)CCc2cc(C(C)(C)C)c(O)c(C(C)(C)C)c2)cc(C(C)(C)C)c1O`, the cytotoxicity call in the test on HSkMC and in the test on HepG2 was “inactive” throughout. For the same compound, in the test on S. aureus RN4220, the growth inhibition call was “inactive”.

With `C[C@H](CO)N1C[C@H](C)[C@@H](CN(C)C(=O)Nc2ccc(C(F)(F)F)cc2)Oc2ccc(NS(C)(=O)=O)cc2CC1=O`, the cytotoxicity call in the test with HSkMC and in the test with HepG2 was “inactive” in each case. In addition, the growth inhibition call in the test with S. aureus RN4220 is “inactive”.

As for `Cc1noc(C)c1NC(=O)Nc1ccc2c(c1)CC(=O)N([C@@H](C)CO)C[C@H](C)[C@H](CN(C)Cc1ccc(C(F)(F)F)cc1)O2`, the cytotoxicity call with HSkMC and in the test on HepG2 was “inactive” each time. Moreover, in the test with S. aureus RN4220, the growth inhibition call is “inactive”.

Turning to `NS(=O)(=O)c1cc2c(cc1Cl)NCNS2(=O)=O`, the cytotoxicity call with HSkMC and in the test on HepG2 was “inactive” each time. In addition, the growth inhibition call with S. aureus RN4220 is “inactive”.

For the compound `Cc1noc(C)c1NC(=O)N(C)C[C@@H]1Oc2ccc(NC(=O)c3ccncc3)cc2C(=O)N([C@@H](C)CO)C[C@@H]1C`, the cytotoxicity call with HSkMC and in the test on HepG2 was “inactive” each time. Further, in the test on S. aureus RN4220, the growth inhibition call was “inactive”.

For `O=C(C[C@H]1C[C@H]2c3cc(NC(=O)Cc4ccncc4)ccc3O[C@H]2[C@H](CO)O1)NCCN1CCCCC1`, the cytotoxicity call with HSkMC and with HepG2 was “inactive” each time. The growth inhibition call with S. aureus RN4220 was “inactive”.

Take `Cc1ccc(-c2ccc3c(c2)O[C@@H](CN(C)C(=O)CN(C)C)[C@@H](C)CN([C@@H](C)CO)S3(=O)=O)cc1`: the cytotoxicity call in the test on HSkMC (human skeletal muscle cells) and with HepG2 was “inactive” each time. For the same compound, the growth inhibition call with S. aureus RN4220 was “inactive”.

Consider `CC(C)NC(=O)NCC[C@@H]1CC[C@H](NC(=O)CN(C)C)[C@@H](CO)O1`, for which the cytotoxicity call in the test with HSkMC and in the test on HepG2 was “inactive” each time. Further, the growth inhibition call in the test with S. aureus RN4220 was “inactive”.

For the compound `C[C@@H]1CN([C@H](C)CO)C(=O)Cc2cc(NC(=O)CCC(F)(F)F)ccc2O[C@H]1CN(C)Cc1ccc(-c2ccccc2)cc1`, the cytotoxicity call in the test with HSkMC is “inactive”. The cytotoxicity call with HepG2 was “active”. In the test with S. aureus RN4220, the growth inhibition call is “inactive”.

For the origin of these results see the antibiotic and cytotoxicity screens of Wong et al. (2023).
